Test results taken from the supplement of paper PMC3334620.
In all, about 33,000 sequences were measured (“E-score (-0.5 to 0.5)”: median about -0.032, highest 2% from about 0.36 on). This is one part of the list.

Biological target: T1, Sko1 (UniProt Q02100)
T1 sequence: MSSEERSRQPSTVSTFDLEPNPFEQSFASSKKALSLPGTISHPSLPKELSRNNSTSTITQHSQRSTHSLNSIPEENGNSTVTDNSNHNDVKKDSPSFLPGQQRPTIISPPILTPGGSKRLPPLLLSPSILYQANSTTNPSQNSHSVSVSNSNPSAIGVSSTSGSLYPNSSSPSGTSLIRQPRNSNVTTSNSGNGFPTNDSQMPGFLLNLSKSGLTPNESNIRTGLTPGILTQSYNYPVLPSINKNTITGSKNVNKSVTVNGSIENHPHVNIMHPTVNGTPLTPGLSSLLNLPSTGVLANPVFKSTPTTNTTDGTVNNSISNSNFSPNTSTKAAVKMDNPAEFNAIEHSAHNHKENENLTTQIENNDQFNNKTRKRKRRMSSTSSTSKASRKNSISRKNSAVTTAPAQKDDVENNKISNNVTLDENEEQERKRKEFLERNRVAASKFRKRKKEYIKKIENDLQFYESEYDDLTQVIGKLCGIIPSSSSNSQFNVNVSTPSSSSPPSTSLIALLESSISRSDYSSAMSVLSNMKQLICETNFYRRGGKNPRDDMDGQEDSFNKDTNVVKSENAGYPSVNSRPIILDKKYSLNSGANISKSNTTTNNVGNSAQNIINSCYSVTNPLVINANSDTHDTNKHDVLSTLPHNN
Experiment: PBM E-score (8-mer binding enrichment) (E-score (-0.5 to 0.5)); higher = stronger / more preferred TF binding; most listed sequences are background and not binding sites
Settings: protein concentration: 200 nM; construct: GST-full length
Outline: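 GST-tagged yeast TFs (full-length or DNA-binding domain) were made by PURExpress in vitro transcription/translation and applied at about 100-200 nM to universal all-10-mer Agilent arrays. The arrays were made double-stranded by primer extension, on fresh or once-stripped slides. Bound protein was detected with fluorescent anti-GST, and scans were normalised with masliner. Each ungapped eight-base word, pooled with its reverse complement, received an E-score (modified Wilcoxon-Mann-Whitney statistic) from the Universal PBM Analysis Suite.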

Row | Sequence | PBM E-score
1 | TGAGCTCA | 0.105
2 | AGACTGGA | -0.112
3 | AATGTCCG | -0.116
4 | CATCAACA | 0.152
5 | CACATGTG | -0.00201
6 | AAGCGAAC | 0.136
7 | ATACGACC | -0.00392
8 | CGCGCTCA | 0.0185
9 | CTGGGCTA | -0.317
10 | CTATTTCA | 0.193
11 | AAATCATA | 0.204
12 | CGCCAGGA | -0.12
13 | ACGAGCAG | -0.0309
14 | AGCGACGG | -0.0889
15 | ACATTGGC | -0.0747
16 | ACCGTCGT | 0.0636
17 | CATCTTCC | 0.142
18 | CACCGGAC | -0.113
19 | GGGCGAAC | -0.15
20 | CGGGCGAA | -0.207
21 | GTCGGTTA | -0.00798
22 | CGGAGAGA | -0.15

Row | Sequence | PBM E-score
23 | CAGGATGG | -0.189
24 | AGGCGAAA | -0.191
25 | TAGCGATA | 0.168
26 | AACCATGA | 0.199
27 | CAGGTTAC | 0.0735
28 | ATCCAACG | -0.0524
29 | AATGCATT | 0.149
30 | AAGGAAAC | -0.1
31 | ACCCAGTG | -0.0197
32 | GACGGGAC | -0.175
33 | GAATCCAA | -0.181
34 | ACACACTA | 0.108
35 | ATGTCCGA | -0.185
36 | AGTGGACC | -0.34
37 | AATGGGGC | -0.276
38 | CAGGGATG | -0.117
39 | CTGTAACC | 0.0382
40 | CGATTTAA | 0.1
41 | CATTAAAC | 0.128
42 | GCTCTCCC | -0.367
43 | AAAATATT | 0.238
44 | AAAGCATG | 0.0731

Row | Sequence | PBM E-score
45 | CCGGGAAA | -0.14
46 | ATTATGCA | 0.176
47 | GGGAGGGA | -0.0905
48 | CATAAATC | 0.11
49 | GATTTGGA | -0.0652
50 | GAGTAACA | 0.0215
51 | ATCTTCTA | 0.061
52 | AAGGGTCA | -0.199
53 | ACGGAAGC | 0.0411
54 | CACCCTGC | -0.0877
55 | GCATTCCC | -0.132
56 | TACCTCAA | 0.064
57 | CGCCAGCG | -0.165
58 | AAGGTTTA | -0.0389
59 | TTGTGAAA | 0.119
60 | ACATGATC | 0.181
61 | ATATTCCC | -0.00863
62 | GAATTGCC | -0.145
63 | ACATACCC | 0.0834
64 | GCAAAGGA | -0.0167
65 | ATCAACTA | 0.248
66 | CAAGAGGA | 0.0173

Row | Sequence | PBM E-score
67 | GACCAACC | -0.0838
68 | AAAGCAGA | 0.0185
69 | CCTTAAAG | -0.05
70 | ATACAGAA | 0.0653
71 | CATGGCGG | -0.126
72 | CCGTGGCG | -0.153
73 | CATTTAGG | -0.169
74 | AGCTGGTG | -0.171
75 | GCTTCGGA | -0.0658
76 | CGCGGCTC | -0.189
77 | CCGTTCGA | -0.0336
78 | CTGCAGAA | 0.0488
79 | GATTATGA | 0.203
80 | CAAGTTCA | -0.00936
81 | CAGATGCA | -0.168
82 | AACCACGA | -0.0344
83 | CATAACCC | -0.196
84 | AGAAACAA | 0.168
85 | CTTGCAAA | -0.094
86 | GAATTGTA | 0.0665
87 | CCCGCCGA | -0.214
88 | ACATTAAG | 0.141

Row | Sequence | PBM E-score
89 | ACCGGTTA | 0.0435
90 | GGAGGCTA | -0.238
91 | CCCAAGGC | -0.256
92 | GTTGGGTA | -0.0431
93 | ATAATCGC | 0.0907
94 | CCAAAAAG | -0.0574
95 | GTGTTATA | 0.184
96 | ACCACGGG | -0.243
97 | AATTTTAC | 0.312
98 | GCCCCCCC | -0.4
99 | AATTAGCT | 0.108
100 | CTGCGGAA | -0.197
101 | AGCGCGAA | 0.13
102 | GATATTCA | -0.0346
103 | AGGGTTCG | -0.225
104 | TCCTTGAA | -0.114
105 | ACGGATAT | 0.176
106 | CCAGGTCC | -0.402
107 | TATTGACA | 0.178
108 | ACAGCCCT | -0.259
109 | CGACATCG | 0.21
110 | GTTATCTA | 0.113
